Results are given in words; binding and its absence hold for the method and conditions named. Some binding calls cover weakened binding; strength is not graded here. For some of these results: Where a sequence is shown, tags or fusion partners need not be part of it.
T1: ALCAM-GFP (UniProt Q13740)
T1 sequence: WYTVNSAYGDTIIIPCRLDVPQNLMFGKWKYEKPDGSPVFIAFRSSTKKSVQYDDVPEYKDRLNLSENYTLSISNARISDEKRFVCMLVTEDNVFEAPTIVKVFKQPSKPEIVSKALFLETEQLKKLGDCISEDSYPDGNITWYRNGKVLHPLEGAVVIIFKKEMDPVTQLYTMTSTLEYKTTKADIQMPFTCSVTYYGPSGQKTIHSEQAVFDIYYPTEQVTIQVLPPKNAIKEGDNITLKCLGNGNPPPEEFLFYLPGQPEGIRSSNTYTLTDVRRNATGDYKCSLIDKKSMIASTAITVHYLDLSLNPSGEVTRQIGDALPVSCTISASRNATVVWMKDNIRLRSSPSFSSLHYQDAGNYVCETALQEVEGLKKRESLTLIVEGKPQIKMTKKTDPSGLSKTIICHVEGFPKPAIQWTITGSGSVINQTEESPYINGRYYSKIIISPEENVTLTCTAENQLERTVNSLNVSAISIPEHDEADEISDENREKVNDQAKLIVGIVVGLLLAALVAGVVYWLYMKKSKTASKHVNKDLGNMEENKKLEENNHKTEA

T2: Necl-3-myc (myc-tagged Necl-3) (UniProt Q8N3J6)
T2 sequence: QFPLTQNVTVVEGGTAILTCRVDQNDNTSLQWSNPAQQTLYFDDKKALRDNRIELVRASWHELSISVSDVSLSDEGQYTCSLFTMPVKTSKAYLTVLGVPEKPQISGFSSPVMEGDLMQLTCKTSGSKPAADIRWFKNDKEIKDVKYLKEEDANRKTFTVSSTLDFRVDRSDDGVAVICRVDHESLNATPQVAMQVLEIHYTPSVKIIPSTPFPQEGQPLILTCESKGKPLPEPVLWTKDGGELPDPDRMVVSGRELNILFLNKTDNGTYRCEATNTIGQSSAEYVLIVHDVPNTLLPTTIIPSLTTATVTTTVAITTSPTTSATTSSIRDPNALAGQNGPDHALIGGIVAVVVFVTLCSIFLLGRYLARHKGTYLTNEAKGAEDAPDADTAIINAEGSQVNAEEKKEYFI

T3: Necl-3-GFP (Necl-3/SynCAM-2 carboxy-terminally fused to GFP) (UniProt Q8N3J6)
T3 sequence: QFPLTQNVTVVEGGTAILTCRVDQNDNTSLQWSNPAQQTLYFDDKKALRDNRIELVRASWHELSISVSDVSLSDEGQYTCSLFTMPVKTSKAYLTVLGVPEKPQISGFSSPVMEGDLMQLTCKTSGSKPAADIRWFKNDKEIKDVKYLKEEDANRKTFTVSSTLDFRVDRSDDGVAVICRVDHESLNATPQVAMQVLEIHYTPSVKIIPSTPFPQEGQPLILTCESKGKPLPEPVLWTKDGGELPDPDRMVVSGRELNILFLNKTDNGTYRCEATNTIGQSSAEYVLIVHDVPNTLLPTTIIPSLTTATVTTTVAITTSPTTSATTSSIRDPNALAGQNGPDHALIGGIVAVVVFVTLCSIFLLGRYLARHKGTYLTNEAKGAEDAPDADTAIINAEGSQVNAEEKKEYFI


Tests used:
Experiment in all cases: cell aggregation assay; S2 cells transfected separately, mixed after the medium change, induced with 0.5 mM CuSO4 and gently shaken for several hours; aggregates seen by phase contrast and fluorescence microscopy
[1] = molecular target: T1, ALCAM-GFP
[2] = molecular target: T2, Necl-3-myc (myc-tagged Necl-3)
[3] = molecular target: T3, Necl-3-GFP (Necl-3/SynCAM-2 carboxy-terminally fused to GFP)
[4] = molecular target: Necl-3-DsRed (UniProt Q8N3J6)

| Binder | binding [1] | binding [3] | also measured |
| --- | --- | --- | --- |
| ALCAM-GFP (protein, UniProt Q13740 28-583) WYTVNSAYGDTIIIPCRLDVPQNLMFGKWKYEKPDGSPVFIAFRSSTKKSVQYDDVPEYKDRLNLSENYTLSISNARISDEKRFVCMLVTEDNVFEAPTIVKVFKQPSKPEIVSKALFLETEQLKKLGDCISEDSYPDGNITWYRNGKVLHPLEGAVVIIFKKEMDPVTQLYTMTSTLEYKTTKADIQMPFTCSVTYYGPSGQKTIHSEQAVFDIYYPTEQVTIQVLPPKNAIKEGDNITLKCLGNGNPPPEEFLFYLPGQPEGIRSSNTYTLTDVRRNATGDYKCSLIDKKSMIASTAITVHYLDLSLNPSGEVTRQIGDALPVSCTISASRNATVVWMKDNIRLRSSPSFSSLHYQDAGNYVCETALQEVEGLKKRESLTLIVEGKPQIKMTKKTDPSGLSKTIICHVEGFPKPAIQWTITGSGSVINQTEESPYINGRYYSKIIISPEENVTLTCTAENQLERTVNSLNVSAISIPEHDEADEISDENREKVNDQAKLIVGIVVGLLLAALVAGVVYWLYMKKSKTASKHVNKDLGNMEENKKLEENNHKTEA | binds |  |  |
| Necl-2-GFP (protein, UniProt Q9BY67 45-442) QNLFTKDVTVIEGEVATISCQVNKSDDSVIQLLNPNRQTIYFRDFRPLKDSRFQLLNFSSSELKVSLTNVSISDEGRYFCQLYTDPPQESYTTITVLVPPRNLMIDIQKDTAVEGEEIEVNCTAMASKPATTIRWFKGNTELKGKSEVEEWSDMYTVTSQLMLKVHKEDDGVPVICQVEHPAVTGNLQTQRYLEVQYKPQVHIQMTYPLQGLTREGDALELTCEAIGKPQPVMVTWVRVDDEMPQHAVLSGPNLFINNLNKTDNGTYRCEASNIVGKAHSDYMLYVYDPPTTIPPPTTTTTTTTTTTTTILTIITDSRAGEEGSIRAVDHAVIGGVVAVVVFAMLCLLIILGRYFARHKGTYFTHEAKGADDAADADTAIINAEGGQNNSEEKKEYFI |  |  | binding [2]: binds |
| Necl-1-DsRed (protein, UniProt Q8N126 25-398) NLSQDDSQPWTSDETVVAGGTVVLKCQVKDHEDSSLQWSNPAQQTLYFGEKRALRDNRIQLVTSTPHELSISISNVALADEGEYTCSIFTMPVRTAKSLVTVLGIPQKPIITGYKSSLREKDTATLNCQSSGSKPAARLTWRKGDQELHGEPTRIQEDPNGKTFTVSSSVTFQVTREDDGASIVCSVNHESLKGADRSTSQRIEVLYTPTAMIRPDPPHPREGQKLLLHCEGRGNPVPQQYLWEKEGSVPPLKMTQESALIFPFLNKSDSGTYGCTATSNMGSYKAYYTLNVNDPSPVPSSSSTYHAIIGGIVAFIVFLLLIMLIFLGHYLIRHKGTYLTHEAKGSDDAPDADTAIINAEGGQSGGDDKKEYFI |  | binds |  |

More lines, main results first:

| binding [1] | binding [3] | Binder | also measured |
| --- | --- | --- | --- |
|  | binds | Necl-3-GFP (Necl-3/SynCAM-2 carboxy-terminally fused to GFP) (protein, UniProt Q8N3J6 25-435) QFPLTQNVTVVEGGTAILTCRVDQNDNTSLQWSNPAQQTLYFDDKKALRDNRIELVRASWHELSISVSDVSLSDEGQYTCSLFTMPVKTSKAYLTVLGVPEKPQISGFSSPVMEGDLMQLTCKTSGSKPAADIRWFKNDKEIKDVKYLKEEDANRKTFTVSSTLDFRVDRSDDGVAVICRVDHESLNATPQVAMQVLEIHYTPSVKIIPSTPFPQEGQPLILTCESKGKPLPEPVLWTKDGGELPDPDRMVVSGRELNILFLNKTDNGTYRCEATNTIGQSSAEYVLIVHDVPNTLLPTTIIPSLTTATVTTTVAITTSPTTSATTSSIRDPNALAGQNGPDHALIGGIVAVVVFVTLCSIFLLGRYLARHKGTYLTNEAKGAEDAPDADTAIINAEGSQVNAEEKKEYFI |  |
| no binding |  | Necl-3-DsRed (protein, UniProt Q8N3J6 25-435) QFPLTQNVTVVEGGTAILTCRVDQNDNTSLQWSNPAQQTLYFDDKKALRDNRIELVRASWHELSISVSDVSLSDEGQYTCSLFTMPVKTSKAYLTVLGVPEKPQISGFSSPVMEGDLMQLTCKTSGSKPAADIRWFKNDKEIKDVKYLKEEDANRKTFTVSSTLDFRVDRSDDGVAVICRVDHESLNATPQVAMQVLEIHYTPSVKIIPSTPFPQEGQPLILTCESKGKPLPEPVLWTKDGGELPDPDRMVVSGRELNILFLNKTDNGTYRCEATNTIGQSSAEYVLIVHDVPNTLLPTTIIPSLTTATVTTTVAITTSPTTSATTSSIRDPNALAGQNGPDHALIGGIVAVVVFVTLCSIFLLGRYLARHKGTYLTNEAKGAEDAPDADTAIINAEGSQVNAEEKKEYFI | binding [4]: binds |
|  | binds | Necl-4-DsRed (protein, UniProt Q8NFZ8 21-388) PGAGQEVQTENVTVAEGGVAEITCRLHQYDGSIVVIQNPARQTLFFNGTRALKDERFQLEEFSPRRVRIRLSDARLEDEGGYFCQLYTEDTHHQIATLTVLVAPENPVVEVREQAVEGGEVELSCLVPRSRPAATLRWYRDRKELKGVSSSQENGKVWSVASTVRFRVDRKDDGGIIICEAQNQALPSGHSKQTQYVLDVQYSPTARIHASQAVVREGDTLVLTCAVTGNPRPNQIRWNRGNESLPERAEAVGETLTLPGLVSADNGTYTCEASNKHGHARALYVLVVYDPGAVVEAQTSVPYAIVGGILALLVFLIICVLVGMVWCSVRQKGSYLTHEASGLDEQGEAREAFLNGSDGHKRKEEFFI |  |

— paper PMC2176061
